Values joined by “and” are separate entries in the source; they are usually repeats but may differ in a detail not shown here. Equal values may be shown once. About 5,800 (2.1%) of roughly 270,000 compounds were called active. This list was built around the results that the source calls inconclusive (neither active nor inactive); the mix of calls is not that of the screen. The call rests on the fitted dose curve; in most records, active means well fitted inhibition curve with a large enough effect; inconclusive means small, poorly fitted or top-dose-only effect; inactive means flat fitted curve, though single readings scatter. Potencies of inconclusive entries are doubtful fits and often do not repeat.
molecular target: Microtubule-associated protein tau (Homo sapiens) (UniProt P10636); experiment: qHTS for Inhibitors of Tau Fibril Formation, Thioflavin T Binding; settings: recombinant tau K18 P301L, heparin-induced fibrillization, ThT fluorescence; series mostly up to 57.4 µM; activity, negative = inhibition: at the top concentration; further: nearly all actives have a fitted effect of over 55% in size
Procedure, shortened: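 Using a mix of unlabeled (15 uM) and Alexa 594-labeled (0.24 uM) tau K18 P301L, heparin-triggered fibrillization over 6 hr at 37 C was scored by ThT fluorescence.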
On the % scale 0 is the no-effect control and ±100 the full control effect; potency means the concentration at half of the fitted maximal effect; tags describe the fitted curve by direction and shape.

Chain of UniProt P10636 (P10636 whole entry, looked up): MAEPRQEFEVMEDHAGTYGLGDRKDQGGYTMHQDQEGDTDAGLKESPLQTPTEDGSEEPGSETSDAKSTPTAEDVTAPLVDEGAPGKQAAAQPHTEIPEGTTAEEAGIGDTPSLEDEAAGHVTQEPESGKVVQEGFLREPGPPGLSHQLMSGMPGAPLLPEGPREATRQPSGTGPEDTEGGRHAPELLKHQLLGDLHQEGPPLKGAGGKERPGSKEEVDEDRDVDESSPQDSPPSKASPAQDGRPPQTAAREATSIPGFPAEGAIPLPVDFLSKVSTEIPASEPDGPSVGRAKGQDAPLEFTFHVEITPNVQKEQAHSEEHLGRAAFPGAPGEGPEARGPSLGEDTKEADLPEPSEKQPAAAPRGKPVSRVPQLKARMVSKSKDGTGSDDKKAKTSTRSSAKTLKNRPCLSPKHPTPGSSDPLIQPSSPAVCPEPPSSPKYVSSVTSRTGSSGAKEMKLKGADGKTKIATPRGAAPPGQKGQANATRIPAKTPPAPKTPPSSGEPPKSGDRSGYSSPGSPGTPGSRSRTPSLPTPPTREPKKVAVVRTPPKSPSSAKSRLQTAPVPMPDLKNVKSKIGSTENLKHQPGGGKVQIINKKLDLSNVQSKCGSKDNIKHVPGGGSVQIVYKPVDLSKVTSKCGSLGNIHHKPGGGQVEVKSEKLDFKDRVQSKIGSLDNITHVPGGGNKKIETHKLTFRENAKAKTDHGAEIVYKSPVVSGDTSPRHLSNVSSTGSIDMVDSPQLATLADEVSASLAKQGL

Structure (SMILES)	Potency	activity, negative = inhibition
COc1ccc(N2CCN(c3nc(-c4cccs4)nc4ccccc34)CC2)cc1	inconclusive: 20 µM [inhibitor, partial curve]	–
CCOC(=O)c1c(N2C(=O)C=CC2=O)sc(C)c1C	inconclusive: 39.8 µM [activator, single point]	–
COCC(C)n1c(C)cc(C(=O)CSc2nnc(Nc3ccccc3F)s2)c1C (stereo unspecified)	inconclusive: 25.1 µM [inhibitor, partial curve]	–
CCOc1ccc(NC(=O)Nc2cc3c(cc2N2CCCCC2)n(C)c(=O)n3C)cc1	inconclusive: 8.91 µM [inhibitor, partial curve]	–
O=C(Nc1cccc2ccccc12)c1ccc([N+](=O)[O-])s1	inconclusive: 17.8 µM [inhibitor, partial curve]	–
Cc1ccc(-c2noc(CN(C(=O)CCCCCN3C(=O)c4ccccc4C3=O)C(C)C)n2)cc1	–	inactive: -14.2%
CCOC(=O)CCCCN(Cc1ccccc1F)S(=O)(=O)c1ccc(F)c(C(=O)Nc2cc(Cl)cc(Cl)c2)c1	–	inactive: 1.27%
COc1cc(-c2noc(-c3ccc(NC4CCCC4)c([N+](=O)[O-])c3)n2)cc(OC)c1OC	inconclusive: 0.0251 µM [activator, full curve, poor fit]	–
Brc1cc(Cc2nnc(-c3ccccc3)o2)c(Br)s1	inconclusive: 22.4 µM [inhibitor, partial curve, poor fit]	–
COC(=O)C1=C(C)N=C2SC(C#N)=C(N)N2C1c1ccc(OC)cc1 (stereo unspecified)	–	inactive: -7.3%
CCOC(=O)N1CCN(c2ncc3c(n2)CC(c2ccc(Cl)cc2)CC3=O)CC1 (stereo unspecified)	inconclusive: 3.55 µM [inhibitor, full curve]	–
Cc1ccc(C(C(=O)NC2CCCC2)N(C(=O)Cc2cccs2)c2ccc(C)c(C)c2)o1 (stereo unspecified)	inconclusive: 39.8 µM [inhibitor, single point]	–
O=C(Nc1ccccc1Br)c1cc(S(=O)(=O)NC2CCCCC2)ccc1F	–	inactive: -6.61%
C=CCc1cccc2cc(C(=O)Nc3ccc(S(=O)(=O)Nc4nnc(CC)s4)cc3)c(=O)oc12	inconclusive: 8.91 µM [inhibitor, partial curve]	–
C=CCc1cccc2cc(-c3nc4ccc(C(=O)O)cc4[nH]3)c(=O)oc12	inconclusive: 3.16 µM [inhibitor, full curve]	–
C[C@@H]1O[C@@H](OC[C@H]2O[C@@H](Oc3c(-c4ccc(O)c(O)c4)oc4cc(O)cc(O)c4c3=O)[C@H](O)[C@@H](O)[C@@H]2O)[C@H](O)[C@H](O)[C@H]1O	inconclusive: 28.2 µM [inhibitor, partial curve]	–
N#Cc1cc2c(nc1SCC(=O)Nc1nccs1)CCCCC2	inconclusive: 1.26 µM [inhibitor, full curve, poor fit]	–
CCOc1ccc(/C=N/NC(=O)CSc2ccccn2)cc1O	–	inactive: -6.19%
Cc1nnc(NC(=O)CSC2=NN3CCCC(=O)N=C3S2)s1	inconclusive: 8.91 µM [inhibitor, partial curve]	–
C=CCc1ccc(OCCOCCOc2cccc3cccnc23)c(OC)c1	inconclusive: 28.2 µM [inhibitor, single point]	–
C[N+](C)(C)CCC(=O)c1cccc2ccccc12	inconclusive: 39.8 µM [activator, single point] and inconclusive: 25.1 µM [activator, single point]	–

Structure (SMILES)	Potency	activity, negative = inhibition
CCCC1=C(C(=O)OCC)C(c2ccc(OC)c(CSc3ccccn3)c2)C(C#N)=C(N)O1 (stereo unspecified)	inconclusive: 39.8 µM [inhibitor, single point]	–
CCOc1ccc(S(=O)(=O)NCc2nc3cccnc3n2Cc2ccccc2OC)cc1	–	inactive: -9.07%
Cc1ccc(-c2cc3nccc(-c4cc([N+](=O)[O-])ccc4O)n3n2)cc1	inconclusive: 7.08 µM [inhibitor, partial curve]	–
CCOC(=O)c1c(C)oc2c1cc(O)c1ccccc12	inconclusive: 7.08 µM [inhibitor, full curve]	–
CCN1CCN(c2cc(C)c3cc(NC(=O)/C=C/c4cccc(OC)c4OC)ccc3n2)CC1	active: 3.16 µM	–
COc1cc(/C=N/NC(=O)c2[nH]nc3c2CCc2ccccc2-3)ccc1O	inconclusive: 3.98 µM [inhibitor, single point]	–
C=CCn1c(=O)c(C(=O)Nc2ccccc2O)c(O)c2ccccc21	inconclusive: 7.94 µM [inhibitor, full curve, poor fit]	–
CCN(C(=S)Nc1cc(S(=O)(=O)N2CCOCC2)ccc1Cl)c1cccc2ccccc12	inconclusive: 14.1 µM [inhibitor, partial curve]	–
COc1cc2c(cc1OC)C(C(=O)NCCN(C)C)C(c1cccs1)N(C)C2=O (stereo unspecified)	–	inactive: -7.8%
O=C(CSc1nnc(COc2ccccc2)o1)c1ccccc1	inconclusive: 22.4 µM [inhibitor, partial curve]	–
O=c1[nH]nc2c3ccccc3cnn12	–	inactive: -5.91%
CCOc1ccccc1-c1nc(-c2ccc(NC(=O)c3ccc(Br)o3)cc2)no1	inconclusive: 2.82 µM [inhibitor, full curve, poor fit]	–
Cc1csc(NC(=O)CSCC(=O)Nc2ccccc2)n1	–	inactive: -6.26%
C=Cc1c(C)/c2[n-]/c1=C\c1[n-]c(c(CC)c1C)/C=c1\[n-]c3c(c1C)C(=O)C(C(=O)[O-])C=3c1[n-]c(c(C)c1CCC(=O)[O-])\C=2.[Cu].[Na+].[Na+] (stereo unspecified)	active: 14.1 µM	–
COc1ccc(O[C@H]2C=C[C@@H](c3ccccc3)O[C@@H]2CO/N=C(\C)CCN2CCCc3nc(C)c(C)cc32)cc1	–	inactive: -2.12% [at 11.5 µM]
Cc1sc(NC(=O)CSc2nnnn2C2CCCCC2)c(C#N)c1C	inconclusive: 25.1 µM [inhibitor, partial curve]	–
Cn1c(=O)[nH]c(=O)c2c1nc(SCC(=O)O)n2CCc1ccccc1	–	inactive: 1.6%
c1ccc(Cn2nnnc2C(c2ccccc2)N2CCN(c3nc4ccccc4s3)CC2)cc1 (stereo unspecified)	–	inactive: -2.25%
COc1ccc2c(c1)C(=O)c1ccccc1CO2	inconclusive: 31.6 µM [inhibitor, single point]	–
O=C(Cn1c(=O)n(Cc2ccccc2)c(=O)c2sc3ccccc3c21)Nc1ccc(F)cc1	inconclusive: 11.2 µM [activator, partial curve]	–
